Assay results from patent publication US10167259B2, “Allosteric inhibitors of proteasome and methods of use thereof” (THE BOARD OF REGENTS OF THE UNIVERSITY OF TEXAS SYSTEM, priority 2013, dated 2019).

System: core proteasome activated by Rpt2 and Rpt5 tail peptides
Assay: Blocking activation of core proteasome chymotrypsin-like activity by Rpt2 and Rpt5 tail peptides
Type: biochemical
Conditions: FIG. 1F
Text: The grooves are utilized by Rpt2, Rpt3 and Rpt5 subunits that anchor the regulatory particle to the core particle (Lander, et al., 2009). The anchoring C-terminal tails of Rpt2 and Rpt5 subunits are responsible for core particle gate opening and activation (Lander, et al., 2009). Activation of the core by both Rpt2 and Rpt5 tails is affected by B1 (FIG. 2C). The groove accommodating the C-terminal tail of Rpt2 subunit may be a primary docking place for B1, or B1 may allosterically affect binding of Rpt2 C-terminal tail with an exceptionally high efficiency (FIG. 2D). In vitro reconstruction of the 26S proteasome assembly from the core particle (20S) and regulatory particle (19S) components is attenuated by the treatment with B1 (FIG. 2E).

## COc1cc(CCCCCOC(=O)C2CCCCN2C(=O)C(=O)C2CCCCC2)cc(OC)c1OC (stereo not shown) [B5]
  Prevention of activation of the core proteasome by Rpt5 tail peptide, compared with B1: at least as efficient as the B1 compound
